Screen size: about 290,000 compounds; about 2,100 (0.72%) were called active. This list was built around the results that the source calls inconclusive (neither active nor inactive); the mix of calls is not that of the screen. Calls come from the whole dose curve; as a rule, active = well fitted inhibition curve with a large enough effect; inconclusive = small, poorly fitted or top-dose-only effect, or effect the other way; inactive = flat fitted curve, though single readings scatter. Where the call is inconclusive, the potency comes from a doubtful curve fit.
Target: Fructose-bisphosphate aldolase (Giardia intestinalis (strain ATCC 50803 / WB clone C6)) (UniProt A8B2U2)
Assay: qHTS Assay for Inhibitors of Fructose-1,6-bisphosphate Aldolase from Giardia Lamblia; note: nearly all actives have a fitted effect of over 55% in size
Details: purified Giardia FBPA; activity, negative = inhibition: at 59.6 µM (top of the series) unless noted
Procedure, shortened: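 Giardia FBPA (40 nM reagent) was preincubated 10 min at RT with compound (up to 57.5 uM final), then substrate plus GAPDH/TPI/NAD/arsenate coupling system with diaphorase/resazurin was added; resorufin fluorescence (525/598 nm) was read after 20 min.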
% is set by controls: 0 for no effect and ±100 for the full control effect; potency is the fitted concentration of half-maximal effect; tags give direction and shape of the fitted curve.

UniProt A8B2U2, sequence (A8B2U2 whole entry, looked up): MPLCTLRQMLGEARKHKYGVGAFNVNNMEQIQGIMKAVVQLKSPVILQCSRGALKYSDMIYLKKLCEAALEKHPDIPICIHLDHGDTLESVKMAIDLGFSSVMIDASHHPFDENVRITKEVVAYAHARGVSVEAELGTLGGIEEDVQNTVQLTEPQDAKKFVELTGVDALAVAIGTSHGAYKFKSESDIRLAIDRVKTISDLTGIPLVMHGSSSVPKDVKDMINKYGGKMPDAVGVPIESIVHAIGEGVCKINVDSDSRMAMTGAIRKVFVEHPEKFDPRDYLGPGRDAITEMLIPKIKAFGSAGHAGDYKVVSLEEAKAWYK

Compound | Potency | activity, negative = inhibition
O=C(N/N=C1\CCCCc2ccccc21)c1ccccn1 | inconclusive: 14.1 µM [inhibitor, partial curve] | 
CSc1c(CC(=O)NCCCO)n(Cc2ccccc2)c2ccccc12 |  | inactive: -15.2%
COc1ccc(C(O)c2nccc3cc(OC)c(OC)cc23)cc1OC (centres undefined) | inconclusive: 15.8 µM [inhibitor, partial curve] | 
COc1cccc2c(=O)c(C(=O)O)c[nH]c12 |  | inactive: -1.21%
N#CC1=C(N)SC(N)=C(C#N)C1c1ccc(C(F)(F)F)cc1 | inconclusive: 8.89 µM [inhibitor, partial curve] | 
CC(C)(C)NC(=S)NCc1ccco1 | inconclusive: 9.98 µM [inhibitor, partial curve] | 
COc1cc(N)c(Cc2nccc3cc(OC)c(OC)cc23)cc1OC | inconclusive: 3.15 µM [inhibitor, full curve, poor fit] | 
CN1CC[C@@]2(C)c3cc(O)ccc3N(C)C2O1 (some centres undefined) | active: 0.63 µM | 
CCOC(=O)c1c(C)oc2c1c1c(c3ccccc32)OCN(Cc2ccccn2)C1 | inconclusive: 9.98 µM [inhibitor, partial curve] | 
CCOc1ccc(C(=O)NCc2ccco2)cc1 | inconclusive: 7.06 µM [activator, single point] | 
COc1cccc(-c2nnc(NC(=O)c3ccc4ncsc4c3)o2)c1 | inconclusive: 15.8 µM [activator, partial curve] | 
CC(C)Cc1nc(SCC(=O)NCC2CCCO2)c2c(=O)n(C)c(=O)n(C)c2n1 (centres undefined) |  | inactive: 2.03%
O=C(Nc1nnc(-c2ccncc2)o1)c1ccc(Br)s1 | inconclusive: 31.5 µM [inhibitor, single point] | 
CCOC(=O)c1ccc(NC(=O)NCc2ccc(OC)cc2)cc1 |  | inactive: 2.08%
Cc1ccc(NC(=S)N2CCN(C3CCCCC3)CC2)cc1 |  | inactive: 1.49%
Cc1ccc(OCCCCNC2CCCCC2)c(C)c1 | inconclusive: 22.3 µM [inhibitor, single point] | 
Cc1ccc(OCc2csc(N)n2)cc1 |  | inactive: -2.01%
Cc1cc(C)c(OCCN2CC(C)OC(C)C2)c(Br)c1 (centres undefined) | inconclusive: 19.9 µM [inhibitor, partial curve] | 
c1ccc(CN2CCN(CCOCCOc3cccc4ccccc34)CC2)cc1 | inconclusive: 17.7 µM [inhibitor, partial curve] | 
CCC1CCCCN1CCCNC(=O)Cn1nc(-c2ccc(C)cc2)ccc1=O (centres undefined) |  | inactive: -0.51%
COc1ccc(N2CCC(CNC(=O)Nc3ccc(OC)cc3OC)C2)cc1 (centres undefined) | inconclusive: 15.8 µM [inhibitor, partial curve] | 
Cn1cccc1/C=N/n1c(-c2ccc(Cl)cc2Cl)n[nH]c1=S | inconclusive: 22.4 µM [activator, single point] | 
C=CCN1C=C2C(=O)C(C)(OC(=O)c3ccco3)C(=O)C(C=C)=C2C=C1C1CC1 (centres undefined) | inconclusive: 1.26 µM [inhibitor, partial curve] | 
Cn1cc(/C=N\NC(=O)c2cccs2)c2ccccc21 |  | inactive: 0.224%
COc1cc(/C=N/NC(=S)NCCN2CCOCC2)cc(OC)c1O | inconclusive: 15.8 µM [inhibitor, partial curve] | 

Compound | Potency | activity, negative = inhibition
COc1cccc(C(=O)NC(=S)Nc2nnn(C)n2)c1 | active: 1.58 µM | 
CCCC(C)NC(=S)NC(=O)c1cc(S(=O)(=O)N2CCOCC2)ccc1C (centres undefined) | inconclusive: 19.9 µM [inhibitor, single point] | 
N#CC(C#N)=C(C#N)c1ccc(Nc2ccccc2)cc1 | active: 22.4 µM | 
COc1ccc(C(Nc2ccccn2)c2oc(CO)cc(=O)c2O)cc1 (centres undefined) | inconclusive: 15.8 µM [inhibitor, partial curve] | 
CC1(C)CC(NC(=S)Nc2ccc(S(N)(=O)=O)cc2)CC(C)(C)N1 | active: 8.89 µM | 
CCOC(=O)c1c(C)oc2c1c(C=NC1CCS(=O)(=O)C1)c(O)c1ccccc12 (centres undefined) | inconclusive: 0.63 µM [inhibitor, full curve] | 
CCN1C=C(Cc2cccs2)C2=C(C1)C(c1cccs1)C(C#N)=C(N)O2 (centres undefined) | inconclusive: 17.7 µM [inhibitor, partial curve] | 
COc1ccc(-n2c(Cc3cccn3C)nnc2SCC(=O)Nc2ccc(C(C)=O)cc2)cc1 |  | inactive: -4.62%
CCC(C)NCCCCOc1ccc(C)cc1[N+](=O)[O-] (centres undefined) | inconclusive: 22.3 µM [inhibitor, partial curve] | 
Fc1ccccc1NC(=S)N1CCC(c2ccccc2)C1 (centres undefined) |  | inactive: 1.63%
CC(C)(C)Sc1ccc(N)nc1 | inconclusive: 17.7 µM [inhibitor, partial curve] | 
O=C1N/C(=C\c2ccc(O)cc2)C(=O)c2ccccc21 | inconclusive: 9.98 µM [inhibitor, partial curve] | 
CC1CCc2c(c3ccccc3n2C(=O)CCl)C1 (centres undefined) | inconclusive: 25.1 µM [inhibitor, single point] | 
COc1cc(O)cc2cc3c(c(O)c12)C(=O)CC(C)(O)O3 (centres undefined) | inconclusive: 1.26 µM [inhibitor, full curve] | 
CCOC(=O)N1CCN(Cc2cn3ccccc3n2)CC1 | inconclusive: 44.6 µM [inhibitor, single point] | 
CCC(C)N(CC(=O)NCc1ccc(OC)cc1)C(=O)c1csnn1 (centres undefined) | inconclusive: 6.31 µM [activator, single point] | 
NCc1ccccc1CC(=O)N[C@@H]1C(=O)N2C(C(=O)O)=C(CSc3nnnn3CC(=O)O)CS[C@@H]12 | inconclusive: 12.6 µM [inhibitor, partial curve] | 
CCN1C(=O)NC(=O)/C(=C/c2cc(C)n(-c3sc(C)c(C)c3C#N)c2C)C1=O | inconclusive: 19.9 µM [inhibitor, partial curve] | 
C=CCNC(=O)C1CCC(CNc2nc(=S)[nH]c3ccccc23)CC1 (centres undefined) |  | inactive: 4.25%
C=CCc1cccc(Cl)c1OCCCNC1CCCC1 | inconclusive: 15.8 µM [inhibitor, single point] | 
CCN(CC)S(=O)(=O)c1ccc(C)c(NC(=O)CNCCN(C(C)C)C(C)C)c1 | active: 14.1 µM | 
COc1ccc(NS(=O)(=O)NC(=O)c2cn(C)c3ccccc23)cc1 |  | inactive: -1.61%
O=C(O)c1cc(-c2ccc(-c3ccc(F)cc3)o2)nc2ccccc12 | active: 20 µM | 
COc1ccc(CCN)cc1O | inconclusive: 9.98 µM [inhibitor, partial curve] | 
Cc1cc(-c2ccccc2)c2c(=O)n(-c3ccccc3)[nH]c2n1 | inconclusive: 17.8 µM [inhibitor, single point] | 

Compound | Potency | activity, negative = inhibition
CCOC(=O)c1c(N2CCN(c3ccccc3)CC2)cc(C)nc1C | active: 14.1 µM | 
COc1ccc(OC)c(NC(=O)Nc2cnccn2)c1 |  | inactive: 1.68%
COc1ccccc1-c1n[nH]c(=S)o1 | inconclusive: 12.6 µM [inhibitor, partial curve] | 
Cc1cc(-c2csc(NCc3ccccc3)n2)c(C)n1C | inconclusive: 12.6 µM [inhibitor, partial curve] | 
CCCCC(C(=O)NC1CCCC1)N(Cc1ccco1)C(=O)Cn1nnc(-c2ccc(F)cc2)n1 (centres undefined) |  | inactive: -4.37%
Cc1ccc2nc3c(c(N)c2c1)CCN3C | inconclusive: 31.6 µM [inhibitor, partial curve] | 
CC1C(=O)N(S(=O)(=O)c2ccc([N+](=O)[O-])cc2)[C@H]1c1ccc2ccccc2c1 (some centres undefined) |  | inactive: 9.79%
COc1ccc2c(c1)NC(C)(C)C=C2C | inconclusive: 8.89 µM [inhibitor, partial curve] | 
CCOc1ccccc1C1C(C#N)=C(N)N(N(C)C)C2=C1C(=O)CCC2 (centres undefined) | inconclusive: 3.98 µM [inhibitor, partial curve] | 
Cc1ccc(CN(C)CCc2ccccn2)cc1 | inconclusive: 31.6 µM [inhibitor, partial curve] | 
COc1ccc(CN2C(=O)NC(=O)/C(=C/c3ccc([N+](=O)[O-])o3)C2=O)cc1 | inconclusive: 19.9 µM [inhibitor, partial curve] | 
Cc1cccc(C(=O)N/N=C/c2ccc[nH]2)c1 | inconclusive: 15.8 µM [inhibitor, single point] | 
Cn1c(=O)c2c(nc(NN=C3CCCC3)n2C)n(C)c1=O | active: 15.8 µM | 
CC(C)CC(OC(=O)c1ccco1)C(=O)NC1CCCCC1 (centres undefined) |  | inactive: 11.7%
O=C(NC(=S)Nc1ccccc1O)c1cccnc1 | inconclusive: 15.8 µM [inhibitor, partial curve] | 
N[C@@H](C(=O)N[C@@H]1C(=O)N2C(C(=O)O)=C(Cl)CS[C@H]12)c1ccccc1 | active: 19.9 µM | 
CCN1CCN(C(=S)c2ccc(OCC(=O)NCc3ccccc3)cc2)CC1 | inconclusive: 31.5 µM [inhibitor, single point] | 
O=C(NCCCN1CCCCCC1)c1ccc2c(c1)NC(=O)C(N1CCOCC1)S2 (centres undefined) | inconclusive: 22.3 µM [inhibitor, single point] | 
CC1(C)Cc2sc3c(=O)[nH]c(=S)[nH]c3c2CO1 | active: 9.98 µM | 
Clc1cc(Br)ccc1OCCOCCN1CCCC1 | inconclusive: 17.8 µM [inhibitor, partial curve] | 
COc1nnc(-c2ccc(C(=O)N3C[C@@H]4C[C@H](C3)c3cccc(=O)n3C4)cc2)c2ccccc12 |  | inactive: 0.962%
O=c1nc2c(O)cccn2c2c1c(=O)[nH]c1ccccc12 | inconclusive: 12.6 µM [inhibitor, partial curve] | 
COCCNCCOc1ccc(C)cc1[N+](=O)[O-] | inconclusive: 17.7 µM [inhibitor, partial curve] | 
CN(C)c1ccc(C(=O)Nc2nnc(-c3ccc(Cl)cc3)o2)cc1 | inconclusive: 31.5 µM [activator, single point] | 

— PubChem BioAssay AID2451 (National Center for Advancing Translational Sciences (NCATS), 2010)
